Two molecules from US20220340635A1, “FUSION PROTEIN FOR TREATMENT OF METABOLIC DISEASE” (ZHEJIANG DOER BIOLOGICS CORPORATION, priority 2019, published 2022) can be followed below.

The nature of series [1]: Serum stability assay (GCGR agonism activity after incubation in serum at 37° C.). The settings on record: serum (FBS), in words.
Series [2] has as its target Recombinant DPP-IV enzyme (Homo sapiens, UniProt P27487). The series is described as follows: DPP-IV enzyme resistance (GCGR bioactivity after DPP-IV treatment). It counts as in vitro ADME. The settings on record: 5 μM protein, 10 nM recombinant DPP-IV, 37° C., 24 hours; GCGR bioactivity after/before treatment. As to the method:
The purified fusion protein was dissolved in 10 mM of HEPES buffer (containing 0.05 mg/ml BSA) to a final concentration of 5 μM. Recombinant DPP-IV enzyme (final concentration of 10 nM) was added and incubated at 37° C. for 24 hours before detection of GCGR bioactivity. Activity retention rate=(activity after DPP-IV enzyme treatment/activity before DPP-IV enzyme treatment)×100%.

A further series has as its system DIO mice. The series is described as follows: Pharmacodynamic study of continuous administration in diet-induced obese (DIO) mice. It counts as in vivo. As for the experimental part:
The purpose of this Embodiment is to study the effect of different dual functional fusion proteins on the body weight of DIO mice. 7-week-old C57BL/6J male mice were fed with high-fat diet (60% kcal from fat) for another 16 weeks (a total of 23 weeks), and the test was conducted when their body weight reached approximately 55 g. Feeding conditions: 12 h light/12 h darkness, freely fed in single cage; mice were grouped (8 mice per group) according to body weight and body weight growth curve the day before administration; at the next day, mice were administered subcutaneously. The mice are administered at a dose of 20 nmol per kg of body weight once every 4 days, with PBS sham injections on other days, for 28 continuous days. The negative control group was injected with saline (PBS) at 5 ul per kg of body weight. The positive control group was injected with liraglutide (40 nmol per kg of body weight) once a day. The body weights of the mice were measured everyday and the food intakes were recorded. Mice were sacrificed on the 5th day after the last administration. Blood was collected from the eye socket. Plasma samples were stored at −80 C. The average body weight changes of each animal group before administration and sacrifice were calculated.

Recombinant DPP-IV enzyme, sequence (P27487 whole entry, species assumed, the tested form may be a part): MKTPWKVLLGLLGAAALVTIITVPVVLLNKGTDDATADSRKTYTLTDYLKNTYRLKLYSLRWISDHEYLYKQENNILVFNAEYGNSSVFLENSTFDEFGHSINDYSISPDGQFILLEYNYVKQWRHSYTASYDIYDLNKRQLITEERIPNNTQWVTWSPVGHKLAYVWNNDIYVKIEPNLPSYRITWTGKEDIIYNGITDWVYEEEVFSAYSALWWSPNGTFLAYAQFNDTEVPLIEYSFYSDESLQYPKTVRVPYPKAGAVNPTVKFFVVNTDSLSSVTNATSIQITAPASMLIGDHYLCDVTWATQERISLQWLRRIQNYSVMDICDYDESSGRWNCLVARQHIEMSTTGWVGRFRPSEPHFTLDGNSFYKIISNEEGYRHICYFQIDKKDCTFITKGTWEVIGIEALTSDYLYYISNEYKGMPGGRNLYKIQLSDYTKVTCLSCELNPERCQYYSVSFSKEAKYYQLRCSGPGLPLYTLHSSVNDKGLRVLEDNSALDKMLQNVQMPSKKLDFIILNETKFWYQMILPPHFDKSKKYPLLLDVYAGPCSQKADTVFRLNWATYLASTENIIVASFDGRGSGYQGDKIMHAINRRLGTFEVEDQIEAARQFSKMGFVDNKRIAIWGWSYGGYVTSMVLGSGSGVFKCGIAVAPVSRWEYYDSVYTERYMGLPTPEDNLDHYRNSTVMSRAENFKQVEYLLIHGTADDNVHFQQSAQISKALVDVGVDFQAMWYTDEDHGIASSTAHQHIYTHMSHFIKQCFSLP

B1: A232L1F6: SEQ ID NO.65: GCG analogue A232 + linker L1 + IgG FC F6 (protein)
chain: HSQGTFTSDYSKYLDEQAAQDFVQWLLAGGPSSGAPPPSGGGGSGGGGSGGGGSA[letters of human IgG4 Fc with S228P N297A (EU numbers) omitted]
modifications: Amino acid sequence of active protein A232L1F6
On to B1, for which, in series [1], the “Stability in serum (relative GCGR activity over time, FIGS. 1A-B)” value is “significantly more stable in serum compared with other fusion proteins”. Besides, in series [2], the “Activity preservation rate (%)” value is recorded as 98.2%.

B2: A352L1F6L5M2: SEQ ID NO.110: GCG analogue A352 + L1 + FC F6 + L5 + FGF21 analogue M2 (protein)
chain: HSQGTFTSDYSKYLDSQAAQDFVQWLLAGGPSSGAPPPSGGGGSGGGGSGGGGSA[letters of human IgG4 Fc with S228P N297A (EU numbers) omitted]GGGGAGGGGAGGGGAHPIPDSSPLLQFGGQVRQRYLYTDDAQQTEAHLEIREDGTVGGAADQSPESLLQLKALKPGVIQILGVKTSRFLCQRPDGALYGSLHFDPEACSFRERLLEDGYNVYQSEAHGLPLHCPGNKSPHRDPAPRGPCRFLPLPGLPPALPEPPGILAPQPPDVGSSDPLSMVGGSQGRSPSYES
modifications: Amino acid sequence of A352L1F6L5M2
As for B2, the “Side effects / safety” value in the series on DIO mice (DIO mice (Embodiment 7)) is “potentially lower side effects and improved safety”. Besides, the “Weight loss effect in DIO mice” value in the series on DIO mice (DIO mice, 20 nmol per kg subcutaneous once every 4 days, 28 days) is “more significant weight loss effect”.
